Test results: article PMC4336329 (PLoS ONE, 2015)
In all, about 310,000 compounds went through this assay and about 2,200 (0.71%) showed an effect of 50% or more. The effect is printed as a negative number. Some of the results follow.

What follows are compounds tested against human ether-à-go-go-related gene (hERG) potassium channel (human, UniProt Q12809) (assay: primary screen, population patch clamp on CHO cells stably expressing hERG).
human ether-à-go-go-related gene (hERG) potassium channel, sequence (Q12809 whole entry, looked up): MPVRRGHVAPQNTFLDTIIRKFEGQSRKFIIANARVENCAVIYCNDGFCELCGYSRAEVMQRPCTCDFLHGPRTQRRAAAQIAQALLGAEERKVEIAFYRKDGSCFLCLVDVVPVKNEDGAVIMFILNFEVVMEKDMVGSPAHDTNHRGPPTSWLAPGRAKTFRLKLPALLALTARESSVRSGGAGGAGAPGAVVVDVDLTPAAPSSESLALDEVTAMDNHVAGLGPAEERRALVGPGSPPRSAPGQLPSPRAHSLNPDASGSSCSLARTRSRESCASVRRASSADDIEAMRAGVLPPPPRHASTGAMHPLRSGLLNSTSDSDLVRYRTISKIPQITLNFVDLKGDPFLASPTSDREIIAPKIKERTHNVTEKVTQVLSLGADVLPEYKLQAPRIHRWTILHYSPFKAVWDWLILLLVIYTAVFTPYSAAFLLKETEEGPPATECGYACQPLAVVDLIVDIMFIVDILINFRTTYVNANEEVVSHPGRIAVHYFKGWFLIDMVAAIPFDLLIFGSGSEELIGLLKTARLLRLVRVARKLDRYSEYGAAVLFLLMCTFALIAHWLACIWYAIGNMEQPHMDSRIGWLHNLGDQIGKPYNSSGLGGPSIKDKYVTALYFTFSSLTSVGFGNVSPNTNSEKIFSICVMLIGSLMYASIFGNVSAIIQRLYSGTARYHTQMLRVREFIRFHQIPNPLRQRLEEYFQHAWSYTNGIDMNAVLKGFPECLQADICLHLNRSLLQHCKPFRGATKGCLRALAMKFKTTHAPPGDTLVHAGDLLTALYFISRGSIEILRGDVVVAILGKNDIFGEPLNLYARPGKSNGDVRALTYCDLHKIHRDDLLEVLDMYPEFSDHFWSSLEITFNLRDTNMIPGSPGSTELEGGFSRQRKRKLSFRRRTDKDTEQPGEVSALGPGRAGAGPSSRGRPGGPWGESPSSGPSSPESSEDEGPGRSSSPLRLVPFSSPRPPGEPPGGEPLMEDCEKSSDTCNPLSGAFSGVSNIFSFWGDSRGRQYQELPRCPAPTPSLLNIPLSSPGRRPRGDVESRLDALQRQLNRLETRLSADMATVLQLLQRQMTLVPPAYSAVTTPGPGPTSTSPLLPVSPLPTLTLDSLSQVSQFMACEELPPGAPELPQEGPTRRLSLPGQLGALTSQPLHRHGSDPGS

Structure (SMILES) | hERG current change (%, negative = inhibition) at 1uM
COC(=O)[C@H](c1ccccc1Cl)N1CCc2sccc2C1 | 17.4%
O=C(N/N=C/c1ccco1)C1COc2ccccc2O1 (centres unmarked) | 4.37%
Cn1ncc(Cl)c1C(=O)N1CCN(C23CC4CC(CC(C4)C2)C3)CC1 | 8.39%
COc1ccc(N2C(=NC(=O)CC3CCCCC3)SC3CS(=O)(=O)CC32)cc1 (centres unmarked) | 6.18%
CN(Cc1ccccc1)C(=O)c1ncn(Cc2ccccc2)c1C(=O)N(C)Cc1ccccc1 | 5.53%
Cc1nc2ccc(S(=O)(=O)NCC(=O)N(C)Cc3ccccc3)cc2s1 | 13.6%
CCS(=O)(=O)NC(C)c1nnc2n1-c1ccc(Br)cc1C(c1ccccc1Cl)=NC2 (centres unmarked) | -4.22%
Cc1nnc(NC(=O)C2CCCO2)s1 (centres unmarked) | 5.67%
CCC(Sc1nc(N)c(NC(=O)c2ccc(Br)o2)c(=O)[nH]1)C(=O)O (centres unmarked) | 7.26%
CC1=NNC(=O)C1Cc1ccccc1C (centres unmarked) | 13.9%
Cc1cc(C)cc(NC(=O)CSc2nc3ccccc3nc2N2CCCC2)c1 | -20.3%
COc1ccc(C2CC(c3ccccc3)=NN2C(=O)COC(=O)c2nc3nc(C)cc(C)n3n2)cc1 (centres unmarked) | 9.71%
C(=N\Nc1nc(-c2ccccc2)cs1)/c1ccco1 | -1.52%
NC(=O)N(N)c1nc(N2CCCC2)nc(N2CCCC2)n1 | 6.1%
COc1ccc(O)c(CNc2ccccc2F)c1 | -2.81%
COC(=O)CSc1nnc(-c2ccco2)n1Cc1ccco1 | -13.2%
CCOc1cccc(/C=N/NC(=O)c2ccc3c(c2)OCCO3)c1O | 8.33%
O=c1[nH]c(Cc2ccccc2Cl)nc2ccccc12 | 17.8%
Cc1cccc(NC(=O)CN2CCN(CC(=O)Nc3cccc(C)c3)CC2)c1 | -44.1%
Cc1ccccc1OCC(O)Cn1c(N2CCN(c3ccccc3)CC2)nc2c1c(=O)[nH]c(=O)n2C (centres unmarked) | 10.3%
Cc1ccc(C(=O)Nc2cc3[nH]c(=O)oc3cc2C)cc1 | 3.78%
O=c1[nH]n(-c2ncnc3c2cnn3-c2ccccc2)c(=O)c2ccccc12 | 18%
CC1CCN(C(=O)CSCC(=O)Nc2nc(-c3cccs3)cs2)CC1 | 11.4%

Structure (SMILES) | hERG current change (%, negative = inhibition) at 1uM
COc1ccccc1OCC(=O)Nc1c2c(nn1-c1ccc(C)cc1)CS(=O)(=O)C2 | -6.13%
CCCOC(=O)/C(=C\c1ccc([N+](=O)[O-])o1)NC(=O)c1ccccc1 | -36.4%
O=C(CN1CC(=O)Oc2ccccc21)OCC(=O)c1ccccc1 | 11.4%
S=c1[nH]ncn1/N=C/c1ccc(Br)cc1 | 9.92%
CCC(=O)n1nc(-c2cccnc2)nc1NCc1cccs1 | 7.2%
O=C(Cc1ccc(F)cc1)NCCc1ccc(F)cc1 | 0.36%
CC(=O)Nc1ccc(N=Nc2c(C)[nH]n(C(N)=S)c2=O)cc1 | 17.1%
CCCc1cc(C(=O)Nc2cccc(Cl)c2)no1 | 5.03%
CC(C)(C)NC(=O)C(c1ccccc1)N(Cc1ccco1)C(=O)c1csnn1 (centres unmarked) | 11.5%
COc1cc(-n2ccnc2SC)c(Cl)cc1Cl | 7.01%
CC(=O)Nc1ccc(S(=O)(=O)N(C)CC(=O)NC2CCCC(C)C2C)cc1 (centres unmarked) | 5.99%
Fc1ccccc1CSCc1nc2ccccc2[nH]1 | 4.56%
COc1ccc(/C=C(\C#N)C(=O)OCC(=O)NCc2ccccc2)cc1 | 12.6%
C=CCOc1nc(-c2ccncc2)nc2ccccc12 | 12.6%
COc1ccc(S(=O)(=O)NCCc2cn3nc(C)c(C)nc3n2)cc1F | 9.48%
Cc1ccc(N=C2NC(=O)/C(=C\c3ccco3)S2)cc1 | 6.28%
O=C(CSc1nnc(Cc2cc(=O)[nH]c(=O)[nH]2)n1-c1ccccc1)N1CCCc2ccccc21 | 17.3%
COc1ccc(NS(=O)(=O)c2cn(C)c(=O)n(C)c2=O)cc1 | 12.3%
COc1ccc(N(CC(=O)N2CCN(Cc3ccccc3)CC2)S(=O)(=O)c2ccccc2)cc1 | 4.82%
Cc1nc2sccn2c(=O)c1CCN1CCC(=C(c2ccccc2)c2ccc(F)cc2)CC1 | -78.8%
N#CC(C(=O)NCc1ccccc1)c1nc2ccccc2nc1N1CCCC1 (centres unmarked) | 4.79%
Cc1cccc(CN2CCN(CC(=O)NCCCN3CCN(c4ccc(F)cc4)CC3)C2=O)c1 | -54.5%
COc1cc2c(c(OC)c1OC)-c1ccc(OC)c(=O)cc1[C@@H](N(C)CC#CCO)CC2 | 14.6%

Structure (SMILES) | hERG current change (%, negative = inhibition) at 1uM
O=C(N/N=C\c1ccncc1)c1ccccc1O | 0.711%
O=C(N1CCCCC1)N1CCN(C(=O)N(c2ccccc2)c2ccccc2)CC1 | 7.33%
COc1ccc(/C=C/C(=O)NCc2ccc3c(c2)OCO3)cc1OC | 9.85%
CCc1ccc(S(=O)(=O)N(C(=O)c2ccncc2)c2ccc(OC(=O)c3ccncc3)cc2)cc1 | 11.6%
Cc1ccc2cc(CN(CCc3ccccc3)C(=S)NCCCN(C)C)c(=O)[nH]c2c1 | -41.1%
Cc1nc2ccccc2c(=O)n1/N=C/c1ccco1 | -1.99%
Cn1c(=O)[nH]c2cc(Cl)cnc21 | 6.92%
Cc1ccc(S(=O)(=O)N(CC(=O)N2CCCCCC2)c2ccccc2)cc1 | -1.11%
CC1CC(C)CN(C(=O)COC(=O)c2cn(C)c3ccccc23)C1 (centres unmarked) | 9.34%
Cc1oc(-c2ccccc2F)nc1CS(=O)(=O)CC(=O)NCc1ccco1 | -4.73%
O=C(O)/C(=C/c1cccnc1)NC(=O)c1ccccc1 | 13.9%
O=C(CSc1nc(C(F)(F)F)cc(=O)[nH]1)NCc1ccc2c(c1)OCO2 | 12.5%
COCCNC(=O)CN1C(=O)CC(C)(C)S(=O)(=O)c2ccccc21 | 17.4%
COc1ccccc1/C=C/C(=O)NC(=S)NC(C)C | 2.84%
COc1ccc(/C=N/Nc2ccccc2C(=O)O)cc1 | 18.8%
C#CCOCCOCCOCCNc1nc(N2CCN(C(=O)[C@H](CCCCN)n3cc([C@@H](N)CO)nn3)CC2)nc(N2CCN(C(=O)[C@H](Cc3cc4ccccc4[nH]3)n3cc([C@@H](N)CO)nn3)CC2)n1.Cl | 17.1%
CCCc1cc(=O)oc2cc(C)cc(OCC(=O)NC(Cc3ccc(Cl)cc3)C(=O)O)c12 (centres unmarked) | 13.2%
Cc1[nH][nH]c(=O)c1C(c1ccc(-c2ccc(Cl)c(Cl)c2)o1)c1c(C)[nH][nH]c1=O | 15.8%
Cc1c(C(=O)C(=O)N2CCC3(CC2)OCCO3)c2ccccc2n1C | 11.3%
O=C(NCCCNC(=O)c1ccc(Cl)cc1Cl)c1ccco1 | -1.77%
Cc1c(C(=O)c2ccc(Cl)cc2[N+](=O)[O-])c2ccccn2c1CCC#N | 1.86%
NC(=O)CC(NC(=O)Cc1ccc(Br)cc1)c1ccc(N2CCc3ccccc3C2)c([N+](=O)[O-])c1 (centres unmarked) | 9.06%
Cc1occc1C(=O)Nc1c(F)cc(F)cc1Br | -5.86%

Structure (SMILES) | hERG current change (%, negative = inhibition) at 1uM
CC(=O)C1=C(O)C(=O)N(CCc2ccccc2)C1c1ccccc1[N+](=O)[O-] (centres unmarked) | 12.9%
Cc1ccc(C)c(N2CCN(C3CCCCC3NS(=O)(=O)c3ccccc3)CC2)c1 (centres unmarked) | 20.1%
O=C(Nc1ccc(Cl)cn1)c1cnn2cccnc12 | 7.42%
C=CCc1cccc(/C=N/NC(=O)CNc2ccccc2)c1O | -9.99%
CCCOC(=O)CSc1nnc(-c2ccccc2Cl)o1 | 9.72%
NC(=O)c1c(NC(=O)c2ccccc2Cl)sc2c1CCC2 | 12.2%
CC(C)(C)c1cnnn1-c1ccc(C=O)cc1 | 9.48%
O=c1c2ccccc2c(C=Nc2ccc(O)cc2)c(O)n1Cc1ccccc1 | 9.19%
O=C(CN1CCOCC1)Nc1ccc(-c2nc3ccccc3[nH]2)cc1 | 8.79%
CCOc1ccccc1OCCCC(=O)Nc1sccc1C(N)=O | 18.4%
O=S(Cc1ccc(Br)cc1)Cc1nnc(SCc2c(F)cccc2Cl)n1-c1ccccc1 (centres unmarked) | 0.505%
C1=CC2C3C=CC(C3)C2C1 (centres unmarked) | 11.2%
CCC(=O)NC(Nc1sc2c(c1C(=O)OC)CCN(C)C2)(C(F)(F)F)C(F)(F)F | -4.22%
O=C(NCC1CC1)c1ccc2c3n(nc2c1)-c1ccc(Cl)cc1CO3 | 9.46%
NC(=O)c1oc2ccccc2c1NC(=O)C1CCCCC1 | 2.69%
Cc1ccc(OCCCCN2CCc3ccccc3C2)cc1.Cl | -0.885%
Cc1ccc2c(CC(=O)NCC(=O)Nc3c(C)cccc3C)coc2c1 | 7.18%
C=CCn1c(SCC(=O)Nc2cc(Cl)ccc2C(=O)O)nc2sc(C)c(C)c2c1=O | 5.99%
Cc1[nH]cnc1CSCc1ccc(Cl)cc1.Cl | -4.76%
CCOc1ccc(Br)cc1CNCc1cccnc1 | 10.5%
